Experimental data published in the supplement of paper PMC4967469.

Compound: COc1ccc(C2=N[C@@H](c3ccc(Cl)cc3)[C@@H](c3ccc(Cl)cc3)N2C(=O)N2CCNC(=O)C2)c(OC(C)C)c1 [Nutlin-3a]
Test: Viability of human cancer cell lines after 72 h of drug (GDSC screen)
Experimental: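 Human cancer cell lines in 384-well plates, medium with 10% serum, drug for 72 h over a 256-fold dose range (nine 2-fold or five 4-fold steps up to the top dose). Adherent lines were fixed and stained with the nucleic acid dye Syto60, suspension lines read with resazurin; signal relative to control wells, capped at 0 and 100%. One two-parameter sigmoid per drug and line, fitted in a mixed model over all curves with the slope shared within a line.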

Row | Cell Line | AUC | IC50 [µM]
1 | PE/CA-PJ15 (head and neck, adherent, top dose 8 µM) | 0.955 | > 8
2 | PEO1 (ovary, adherent, top dose 8 µM) | 0.986 | > 8
3 | PF-382 (T-cell lymphoblastic leukaemia, suspension, top dose 8 µM) | 0.991 | > 8
4 | PFSK-1 (medulloblastoma, adherent, top dose 8 µM) | 0.937 | > 8
5 | PL4 (pancreas, adherent, top dose 8 µM) | 0.987 | > 8
6 | PSN1 (pancreas, adherent, top dose 8 µM) | 0.991 | > 8
7 | PWR-1E (prostate, adherent, top dose 8 µM) | 0.984 | > 8
8 | QGP-1 (pancreas, adherent, top dose 8 µM) | 0.974 | > 8
9 | QIMR-WIL (acute myeloid leukaemia, suspension, top dose 8 µM) | 0.79 | 3.44
10 | RC-K8 (B-cell lymphoma, suspension, top dose 8 µM) | 0.915 | > 8
11 | RCC10RGB (kidney, adherent, top dose 8 µM) | 0.852 | > 8
12 | RCC-AB (kidney, adherent, top dose 8 µM) | 0.831 | 7.38
13 | RCC-ER (kidney, adherent, top dose 8 µM) | 0.986 | > 8
14 | RCC-FG2 (kidney, adherent, top dose 8 µM) | 0.975 | > 8
15 | RCC-JF (kidney, adherent, top dose 8 µM) | 0.772 | 3.47
16 | RCC-JW (kidney, adherent, top dose 8 µM) | 0.796 | 3.85
17 | RCC-MF (kidney, adherent, top dose 8 µM) | 0.867 | > 8

Row | Cell Line | AUC | IC50 [µM]
18 | RCH-ACV (B-cell leukaemia, suspension, top dose 8 µM) | 0.757 | 2.32
19 | RCM-1 (large intestine, adherent, top dose 8 µM) | 0.977 | > 8
20 | REH (B-cell leukaemia, suspension, top dose 8 µM) | 0.879 | 7.69
21 | RERF-GC-1B (stomach, adherent, top dose 4 µM) | 0.985 | > 4
22 | RERF-LC-KJ (lung adenocarcinoma, adherent, top dose 8 µM) | 0.984 | > 8
23 | RERF-LC-MS (lung adenocarcinoma, adherent, top dose 8 µM) | 0.987 | > 8
24 | RERF-LC-Sq1 (lung squamous cell carcinoma, adherent, top dose 8 µM) | 0.923 | > 8
25 | RF-48 (stomach, adherent, top dose 8 µM) | 0.87 | > 8
26 | RH-1 (rhabdomyosarcoma, adherent, top dose 8 µM) | 0.976 | > 8
27 | RH-18 (rhabdomyosarcoma, adherent, top dose 8 µM) | 0.706 | 2.09
28 | RH-41 (rhabdomyosarcoma, adherent, top dose 4 µM) | 0.963 | > 4
29 | RKN (ovary, adherent, top dose 8 µM) | 0.961 | > 8
30 | RL (B-cell lymphoma, suspension, top dose 8 µM) | 0.99 | > 8
31 | RO82-W-1 (thyroid, adherent, top dose 8 µM) | 0.908 | > 8
32 | ROS-50 (B-cell leukaemia, suspension, top dose 8 µM) | 0.964 | > 8
33 | RPMI-2650 (head and neck, adherent, top dose 8 µM) | 0.869 | > 8
34 | RPMI-6666 (Hodgkin lymphoma, suspension, top dose 8 µM) | 0.81 | 5.29

By IC50 is meant the dose at which the fit gives 50% viability; a limit (>, <) means that the fit lies beyond the doses tested. For AUC the same curve is integrated over the 256-fold range of doses and scaled to a fraction; it is 1 without any effect and falls as sensitivity rises.
